# Experimental data reported in the supplement of paper PMC11417369.
# ± gives the standard deviation of the averaged measurements. This is one part of the list.
# Tested on: PfAP2-LT AP2 domain (GST-tagged)
# Test: gcPBM binding intensity (ln(normalized median fluorescence intensity)); higher = stronger DNA binding
# Procedure, shortened: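 Binding intensity is the highest Masliner-normalised natural-log median intensity over replicate spots in either probe orientation. To obtain it, GST-tagged P. falciparum DNA-binding domains made in E. coli were incubated for 1 h on an Agilent 4 × 180k array of primer-extended double-stranded 36-bp intergenic genomic probes plus negative controls. Detection used Alexa488 anti-GST antibody with scanning at 488 nm.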
row,Sequence,gcPBM binding intensity (ln)
1,TTTTCAATATATTAATGTACGAATACGCAAATAAGA [XGTACX_site1613],8.61 ± 0.34
2,GCACATAAATATATGACACACACACCGATTATATAT [CACACA_site9003],9.87 ± 0.2
3,TTAATAAATAAAAATGCACACAGTTAACATGTTGAA [CACACA_site1200],8.82 ± 0.36
4,ATAATAATTTAATACATACACACGTATATCTTTTTT [CACACA_site2041],8.94 ± 0.49
5,AAAAAAAAAAAAAAAACACACAAACATCAAATTATT [CACACA_site5083],8.98 ± 0.46
6,GCAGGATTGGTTCAAACACACATATTATATGACTAT [CACACA_site660],9.02 ± 0.38
7,TTTTTTTTTTTTTTTGCACACACATAATAGGTACAA [CACACA_site3578],9.41 ± 0.3
8,ATCTTATATGATCACACACACACGCACAAAACAGAA [CACACA_site4913],9.79 ± 0.2
9,TAAATATATATATACACACACATACACAAAAAAAAA [CACACA_site3580],9.51 ± 0.31
10,TGTGGTTACATGTGCACACACTTATTTCGTTCTTAT [CACACA_site4907],9.47 ± 0.47
11,ATTGCATATAATGGCACACATAAATCCATAATATAT [CACACA_site297],9.02 ± 0.38
12,TATTTTTTTTCTTATACACACCATGCATCAAACTAA [CACACA_site5208],8.77 ± 0.5
13,TTTATATATATATATATATATAATAAATGATACACA [TGCATGCA_negctrl_site392],8.91 ± 0.2
14,TTTGCACCGTTTAAGTGTACAGAATTATGACATATA [XGTACX_site6735],8.58 ± 0.4
15,TCAAAAATATTCTGGAGTACCTTTTTAAAGGTATAG [XGTACX_site6893],8.43 ± 0.54
16,TAAGTTATATGTATATGTACTTATATATATATATAT [XGTACX_site5402],8.79 ± 0.29
17,ATTAAAAAAATTAAAAGTACACATATTTCAATGATA [XGTACX_site5606],8.43 ± 0.41
18,TAAAAAAAAAAAAAAACACACATATAAATATATATA [CACACA_site1243],8.56 ± 0.52
19,AAAATTAAAAAGAACACACAAATATATCTATAATAA [CACACA_site7660],8.86 ± 0.5
20,CAAAATTTATGTAAAAGTACAAAAATATAGAAAGAT [XGTACX_site1122],9.02 ± 0.47
21,TAATCGAAACAAAGAACATGCAAACATATACCTATA [TGCATGCA_site894],8.81 ± 0.45
22,TGTGTTCATCTATGCACACGCATATATATTATTGTT [CACACA_site5985],9.11 ± 0.36
23,TTTTATTCCTTCTTTGCACACGTTTAAAAATATATA [CACACA_site2899],8.99 ± 0.38
24,AATATAATATAAGGATCACACACAAACACCCATATA [CACACA_site8084],9.77 ± 0.2
25,AAAGTATTCTTTACACGTACATATATATAAATATAA [XGTACX_site7557],8.59 ± 0.33
